Consider 42 compounds from PubChem BioAssay AID686979 (National Center for Advancing Translational Sciences (NCATS), 2013).

Screen size: about 420,000 compounds; about 50,000 (12%) were called active. Another 26% or so got no clear call; they are omitted. Calls follow the shape of the dose curve; as a rule, active = well fitted inhibition curve with a large enough effect; inconclusive = small, poorly fitted or top-dose-only effect; inactive = flat fitted curve, though single readings scatter. This is a selection; strong and weak results do not stand in their true shares. Some compounds were tested as several samples or in several runs, with calls that do not always agree.
% is scaled to controls: 0 for no effect and ±100 for the full control effect; potency is read from the fitted curve at half-maximal effect.

A short description of the assay: qHTS for Inhibitors of human tyrosyl-DNA phosphodiesterase 1 (TDP1): qHTS in cells in presence of CPT. Also: nearly all actives have a fitted effect of over 55% in size. Particulars: chicken DT40 Tdp1-/-;hTDP1 cells + 20 nM CPT, ATP luminescence, 48 h; series mostly up to 46.2 µM; activity change, negative = growth inhibition: at the top concentration. Summed up:
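Chicken DT40 Tdp1-/- cells stably complemented with human TDP1 were seeded at 400 cells/well in medium containing 20 nM camptothecin, exposed to pin-transferred compounds, and grown at 37 °C for at least 48 hr. Viability was read as ATP luminescence.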
(In general: In qHTS, concentration-response curves come from the screen itself.)
Turning to `COC(=O)[C@@H]1C(OC(=O)c2ccccc2)CC2CCC1N2C` (some centres not stated), the “activity change, negative = growth inhibition” value was inactive: -19.5%.

With `c1cc2c(cc1[C@H]1OC[C@H]3[C@@H]1CO[C@@H]3c1ccc3c(c1)OCO3)OCO2`, the “activity change, negative = growth inhibition” value is inactive: -10.6%.

With `CN1CC[C@]23c4c5ccc(O)c4OC2C(O)C=CC3[C@H]1C5` (some centres not stated), the “activity change, negative = growth inhibition” value is inactive: -4.16%.

For the compound `CC[C@H]1OC(=O)C[C@@H](O)[C@H](C)[C@@H](O[C@@H]2O[C@H](C)[C@@H](O[C@H]3C[C@@](C)(O)[C@@H](O)[C@H](C)O3)[C@H](N(C)C)[C@H]2O)[C@@H](CC=O)C[C@@H](C)C(=O)/C=C/C(C)=C/[C@@H]1CO[C@@H]1O[C@H](C)[C@@H](O)[C@@H](OC)[C@H]1OC`, the Potency entry is “inactive”.

Consider `CCCCc1ccc(C(=O)O)nc1`, for which the Potency entry is “inactive”.

In the case of `C[N+](C)(C)CC#CCOC(=O)Nc1cccc(Cl)c1`, the “activity change, negative = growth inhibition” value is inactive: -2.61%.

For `O=c1[nH]c(=S)n(C2CC2)c(O)c1/C=N/Nc1ccccc1`, the “activity change, negative = growth inhibition” value was inactive: -7.17%.

Regarding `CCOC(=O)[C@]12Cc3cc4ccccc4cc3[C@H]1N(Cc1ccccc1)C(=O)c1cc(OC)ccc12`, the Potency is active: 8.2 µM.

For `C=CCn1c(O)c(C(=O)CCCCCC)c(=O)[nH]c1=O`, the Potency is active: 11.6 µM.

Turning to `CCCN[C@@H]1C(=O)N2C(C(=O)OCCC)=C(C)CS[C@H]12`, the “activity change, negative = growth inhibition” value was inactive: -28.6%.

As for `CCC(C(=O)OCCOCCN(CC)CC)c1ccccc1` (configuration not stated), the Potency entry is “inactive”.

Consider `CC1(C)OC1COc1c2occc2cc2ccc(=O)oc12` (configuration not stated), for which the activity change, negative = growth inhibition was inactive: -11% [at 9.04 µM].

Regarding `CC(CCc1ccccc1)NC(C)C(O)c1ccc(O)cc1` (configuration not stated), the “activity change, negative = growth inhibition” value is inactive: -22.6%.

Turning to `CCC(=O)O[C@]1(c2ccccc2)CCN(C)C[C@H]1C`, the “activity change, negative = growth inhibition” value is inactive: 5.79%.

With `CC(C)[C@@]1(NC(=O)[C@@H]2C[C@@H]3c4cccc5[nH]cc(c45)C[C@H]3N(C)C2)O[C@@]2(O)[C@@H]3CCCN3C(=O)[C@H](Cc3ccccc3)N2C1=O`, the Potency entry was “inactive”.

As to `Nc1ccc(Sc2ccc(N)cc2)cc1`, the Potency result is “inactive”.

`CN(C)c1ccc(/C=C/c2ccnc3c(O)cccc23)cc1`: the “activity change, negative = growth inhibition” value is inactive: -97.5%.

With `c1cncc(C2CCCCN2)c1` (configuration not stated), the Potency result was “inactive”.

Consider `C[C@H]1CN([C@@H](C)CO)C(=O)CCCn2nncc2CO[C@H]1CN(C)C(=O)Oc1ccccc1`, for which the “activity change, negative = growth inhibition” value was inactive: -12.4%.

For the compound `CCCN1CCc2cccc3c2[C@H]1Cc1ccc(O)c(O)c1-3`, the “activity change, negative = growth inhibition” value was inactive: -84.8%.

In the case of `C[C@]12CC[C@@H]3c4ccc(OC(=O)N(CCCl)CCCl)cc4CC[C@H]3[C@@H]1CC[C@@H]2O`, the “activity change, negative = growth inhibition” value was inactive: -9.57%.

On to `Cc1nn(Cc2ccccc2Cl)c(C)c1C(=O)OCC(=O)NC1CCCC(C)C1C` (configuration not stated), for which the Potency was active: 20.6 µM.

With `CCCCCCC(=O)c1c(O)n(-c2ccccc2OC)c(=O)[nH]c1=O` (tested in a mixture with another compound), the “activity change, negative = growth inhibition” value is inactive: 11.5%.

On to `O=[N+]([O-])c1cc([As](=O)(O)O)ccc1O`, for which the Potency entry was “inactive”.

As to `COc1ccc2c3c([nH]c2c1)C(C)=NCC3`, the “activity change, negative = growth inhibition” value was inactive: -28.3%.

For the compound `C[C@@H](N)Cc1cnc[nH]1`, the Potency entry was “inactive”.

`CN1CCC23c4c5ccc(O)c4O[C@@H]2[C@H](O)C=CC3C1C5` (some centres not stated): the “activity change, negative = growth inhibition” value was inactive: 10.7%.

As for `COC(=O)[C@@H](N)CCCN=C(N)N[N+](=O)[O-]`, the Potency result was “inactive”.

As to `CCOC(=O)c1cc2c(cn1)[nH]c1ccccc12`, the Potency result is “inactive”.

On to `CC(C)(C)NCC(O)c1cc(Cl)c(N)c(Cl)c1` (configuration not stated), for which the Potency result is “inactive”.

As to `O=c1ccc2cc(O[C@H]3OC(CO)C(O)C(O)C3O)c(O)cc2o1` (some centres not stated), the Potency entry was “inactive”.

Regarding `CCn1cc(C(=O)O)c(=O)c2ccc(C)nc21`, the Potency entry was “inactive”.

For `O=c1[nH]c(=S)n(C2CC2)c(O)c1C=NCc1cccnc1`, the “activity change, negative = growth inhibition” value is inactive: -7.85%.

Turning to `O=[N+]([O-])/N=C1\NCCN1Cc1ccc(Cl)nc1`, the “activity change, negative = growth inhibition” value is inactive: 4.29%.

On to `O=c1ccc2cc(OC3O[C@H](CO)[C@@H](O)[C@H](O)[C@H]3O)c(O)cc2o1` (some centres not stated), for which the “activity change, negative = growth inhibition” value is inactive: 1.73%.

Regarding `O=C(c1ccc(C(F)(F)F)cc1)C1CCCN(Cc2ccncc2)C1` (configuration not stated), the Potency was active: 10.3 µM.

In the case of `O=C(C1CC(c2ccc(Cl)c(Cl)c2)=NO1)N1CCC2(CC1)OCCO2` (configuration not stated), the Potency was active: 14.6 µM.

In the case of `C[C@@H]1CN(CCCn2c3ccccc3c3ccccc32)C[C@H](C)N1`, the Potency is active: 7.5 µM.

On to `Cc1ccc(N2C(=O)NC(=O)/C(=C/c3ccoc3)C2=O)cc1`, for which the “activity change, negative = growth inhibition” value was inactive: -16.8%.

Take `CCC1(c2cnc[nH]2)Cc2ccccc2C1`: the “activity change, negative = growth inhibition” value was inactive: -27.5%.

Consider `CCCCc1ccc2[nH]cc(CCN)c2c1`, for which the Potency is active: 20.6 µM.

With `COC(=O)C1=CO[C@@H](C)[C@@H]2CN3CC[C@]4(C(=O)Nc5ccccc54)[C@@H]3C[C@H]12`, the “activity change, negative = growth inhibition” value is inactive: 0.201%.
